Several values for one entry are separate records, joined by “and”; a condition that tells them apart may be missing. Equal entries are not always repeated. This list was built around the results that the source calls inconclusive (neither active nor inactive); the mix of calls is not that of the screen. Potencies beside an inconclusive call are fits to weak or partial responses and may not hold up. Activity calls are given as the source filed them. Calls follow the shape of the dose curve; as a rule, active = well fitted cell-killing curve with a large enough effect; inconclusive = small, poorly fitted or top-dose-only effect, or effect the other way; inactive = no such curve, though single readings can be large or run the other way.
Assay: Viability qHTS for spleen associated tyrosine kinase inhibitor (SYKi) drug resistant MV4-11 cells (AID 1963824); also: nearly all actives have a fitted effect of over 35% in size
Details: SYKi-resistant MV4-11 viability, CellTiter-Glo, 72 h; series mostly up to 45 µM; viability, % of control: at the top concentration
Method in brief: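 SYK-inhibitor-resistant MV4-11 AML cells were seeded at 500 per well onto compound and cultured 72 hours (37 °C, 5% CO2). CellTiter-Glo was then added, and after 10 min at room temperature, luminescence gave viability.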
Potency is read from the fitted curve at half-maximal effect; tags tell the direction and shape of the fitted curve.

Row | Structure (SMILES) | Potency | viability, % of control
1 | Nc1ncnc2c1nc(Cl)n2C1OC2COP(=O)(O)OC2C1O (stereo not given) | active: 0.461 µM | 
2 | Cc1nc(CN(C)c2ncnc3ccc(-c4ccc5c(c4)OCO5)cc23)cs1 | active: 5.8 µM | 
3 | CC(C(O)/C=C/C(C)(C)O)C1CCC2(C)C3C(=O)C=C4C(CCC(O)C4(C)C)C3(C)CCC12C (stereo not given) | inconclusive: 14.2 µM [cytotoxic, single point] | 
4 | CCC1=CC2CN(C1)Cc1c([nH]c3ccccc13)[C@@](C(=O)OC)(c1cc3c(cc1OC)N(C)[C@H]1[C@@](O)(C(=O)OC)[C@H](OC(C)=O)[C@]4(CC)C=CCN5CC[C@]31[C@@H]54)C2 (stereo not given in full) | active: 0.0126 µM | 
5 | CCOC(=O)C(O)c1ccccc1 (stereo not given) |  | inactive: 88.3%
6 | CC1CC(=O)C2C(O)(C1)CC(O)C13OC1c1c(O)cccc1C(=O)C23O (stereo not given) | inconclusive: 9.04 µM [cytotoxic, partial curve, poor fit] | 
7 | C=CC1(C)CC(OC(=O)/C(C)=C\COC(C)=O)C(C(=C)C(=O)O)C(O)C1C(=C)CO (stereo not given) |  | inactive: 86.1% [at 17.3 µM]
8 | COC(=O)C(CC1(O)c2ccccc2N2C(=O)C(C)(C)N(O)C21)n1cnc2ccccc2c1=O (stereo not given) | inconclusive: 5.02 µM [cytotoxic, partial curve, poor fit] | 
9 | CC(C)C1NC(=O)CNC(=O)C2CCCN2C(=O)C(Cc2c[nH]c3ccccc23)NC(=O)CNC(=O)C(Cc2ccc(O)cc2)NC(=O)CNC1=O (stereo not given) |  | inactive: 77.6% [at 17.3 µM]
10 | CCC(C)C(=O)OC[C@H]1O[C@H](O[C@H]2O[C@H](CO)[C@@H](O)[C@H](O)[C@H]2O)[C@H](O)[C@@H](O)[C@@H]1O (stereo not given in full) |  | inactive: 98% [at 17.3 µM]
11 | NCC1CCC(C(=O)O)CC1 (stereo not given) |  | inactive: 91.6% [at 17.3 µM]
12 | C[C@H](NC(CCc1ccccc1)C(=O)O)C(=O)N1CCC[C@H]1C(=O)O (stereo not given in full) | inconclusive: 2.37 µM [rising, partial curve, poor fit] | 
13 | COC(=O)C1=CO[C@@H](O[C@@H]2O[C@H](CO)[C@@H](O)[C@H](O)[C@H]2O)[C@@H]2C(C)CC(=O)[C@]12O (stereo not given in full) |  | inactive: 89% [at 17.3 µM]
14 | O=C(NNc1ccccc1)c1ccncc1 | inconclusive: 10.3 µM [cytotoxic, partial curve] and inconclusive: 18.6 µM [cytotoxic, partial curve] | 
15 | C/C(CO)=C1/CCC23COC(C2)C(O)(C(=O)O)CCC13 (stereo not given) |  | inactive: 72.3%
16 | C=C(C)C(=O)O[C@H]1[C@H]2C(=C)C(=O)O[C@@H]2C[C@@H](C)[C@@H]2O[C@@H]2C(=O)[C@](C)(O)[C@@H]1OC(C)=O | active: 1.59 µM | 
17 | Cc1ccc(-c2ccc3ncc4c(c3n2)n(C2CCN(C(=O)[C@H](C)O)CC2)c(=O)n4C)cn1 | active: 0.058 µM | 
18 | CC12CCC(OC3OC(CO)C(O)C(OC4OC(CO)C(O)C(O)C4O)C3O)CC1=CCC1C2CCC2(C)/C(=C3/COC(=O)C3)CCC12O (stereo not given) | inconclusive: 5.44 µM [cytotoxic, single point] | 
19 | Cc1c(C(C)C)c(=O)n(-c2ccccc2)n1C | inconclusive: 3.76 µM [cytotoxic, partial curve, poor fit] | 
20 | O=C1NC(Cc2ccccc2)C(=O)N2CCCC12 (stereo not given) |  | inactive: 72.2%
21 | OC/C=C/C=C/[C@H]1Cc2cc(O)cc(O)c2O1 | inconclusive: 6.51 µM [cytotoxic, single point] | 
22 | C/C=C(\C)[C@@H]1C(C)=C[C@@H]2[C@H]([C@@H]1/C=C/C=C/C(=O)O)[C@@H](C)CC[C@@H]2O | active: 3.6 µM | 
23 | CC(O)COc1ccccc1 (stereo not given) |  | inactive: 80.6%
24 | Oc1ccc(CNc2ccccc2F)c2cccnc12 | active: 4.61 µM | 
25 | N[C@H]1C[C@H]1c1ccc(-c2cccc(O)c2)cc1 | inconclusive: 1.84 µM [cytotoxic, partial curve, poor fit] and inconclusive: 25.9 µM [cytotoxic, partial curve, poor fit] | 
26 | NS(=O)(=O)c1cc(-c2nn[nH]n2)c(NCc2cccs2)cc1Cl |  | inactive: 93.8%
27 | C=C[C@]1(C)C[C@H](O)[C@@H]2[C@H](OC(=O)[C@@H]2C)C1/C(C)=C/O[C@@H]1O[C@H](CO)[C@@H](O)[C@H](O)[C@H]1O (stereo not given in full) |  | inactive: 85.2% [at 17.3 µM]
28 | COC1=CC(=O)C[C@@H](C)[C@@]12Oc1c(Cl)c(OC)cc(OC)c1C2=O |  | inactive: 8.12%
29 | CC1(C)CCC[C@@]2(C)C1[C@H](OC(=O)/C=C/C=C/C(=O)O)C=C1COC(=O)[C@@]12O (stereo not given in full) |  | inactive: 103%
30 | C[C@@H]1O[C@@H](O[C@H]2[C@H](O[C@H]3[C@H](O[C@H]4CC[C@@]5(C)C(CC[C@]6(C)C5CC=C5[C@@H]7CC(C)(C(=O)O)C[C@@H](O)[C@]7(C)CC[C@]56C)[C@@]4(C)CO)O[C@H](C(=O)O)[C@@H](O)[C@@H]3O)O[C@H](CO)[C@H](O)[C@@H]2O)[C@H](O)[C@H](O)[C@H]1O (stereo not given in full) |  | inactive: 77.5% [at 9.25 µM]
